Measured values reported in the antibiotic and cytotoxicity screens of Wong et al. (2023).
Some of the results follow.

What was measured:
[1] = system: HSkMC (human skeletal muscle cells); experiment: cytotoxicity call (relative viability < 0.9); conditions: 10 µM
[2] = system: HepG2; experiment: cytotoxicity call (relative viability < 0.9); conditions: 10 µM
[3] = system: S. aureus RN4220; experiment: growth inhibition call (relative growth <= 0.2); conditions: 50 µM

Row | Compound | cytotoxicity call [1] | cytotoxicity call [2] | growth inhibition call [3]
1 | O=C(N[C@H]1C=C[C@@H](CC(=O)N2CCOCC2)O[C@H]1CO)c1ccccn1 | inactive | inactive | inactive
2 | COc1cccc([C@@H](NC(=O)C2CCN(Cc3ccc(Oc4ccccc4)cc3)CC2)c2ccccn2)c1 | inactive | inactive | inactive
3 | CC(=O)N(C)c1nc(N)n(-c2ccccc2)n1 | inactive | inactive | inactive
4 | CC(C)(C)[S@](=O)N1Cc2cc(C(=O)NCC(F)(F)F)nc(-c3cccc(-c4cccc(F)c4)c3)c2[C@@H]1CCO | inactive | active | inactive
5 | C[C@@H]1CN([C@@H](C)CO)C(=O)c2c(c3ccccc3n2C)-c2ccccc2CO[C@H]1CN(C)S(=O)(=O)c1cn(C)cn1 | inactive | inactive | inactive
6 | C[C@H](CO)N1C[C@H](C)[C@@H](CN(C)C(=O)Nc2cccc3ccccc23)Oc2ccc(NC(=O)NC3CCCCC3)cc2C1=O | inactive | inactive | inactive
7 | C[C@H](CO)N1C[C@H](C)[C@H](CN(C)Cc2ccccc2)Oc2ccc(NC(=O)Nc3ccc(C(F)(F)F)cc3)cc2CC1=O | active | active | inactive
8 | O=C(O)CCNC(=O)c1ccccc1 | inactive | inactive | inactive
9 | Cl.Cl.OCCN1CCN(CCCN2c3ccccc3Sc3ccc(C(F)(F)F)cc32)CC1 | inactive | active | inactive
10 | C[C@@H]1CCCCO[C@@H](CN(C)Cc2ccc3c(c2)OCO3)[C@H](C)CN([C@@H](C)CO)C(=O)c2cc(NS(=O)(=O)c3ccc(F)cc3)ccc2O1 | inactive | inactive | inactive
11 | COc1ccc(CN(C)C[C@H]2Oc3ccc(NS(=O)(=O)c4cn(C)cn4)cc3C(=O)N([C@H](C)CO)C[C@H]2C)cc1 | inactive | inactive | inactive
12 | C[C@H]1CN([C@@H](C)CO)C(=O)c2cc(NC(=O)C3CCCCC3)ccc2O[C@H]1CN(C)Cc1ccc(-c2ccccc2)cc1 | inactive | active | inactive
13 | Cc1noc(C)c1NC(=O)Nc1ccc2c(c1)C(=O)N([C@H](C)CO)C[C@H](C)[C@H](CN(C)S(=O)(=O)c1ccc(F)cc1)OCCCC[C@@H](C)O2 | inactive | inactive | inactive
14 | C[C@H](CO)N1C[C@H](C)[C@@H](CN(C)C(=O)CN(C)C)Oc2ncc(C#CC(C)(C)O)cc2C1=O | inactive | inactive | inactive
15 | COc1cccc(S(=O)(=O)Nc2ccc3c(c2)[C@H]2C[C@@H](CC(=O)N4CCCCC4)O[C@@H](CO)[C@H]2O3)c1 | inactive | inactive | inactive
16 | C[C@@H]1CN([C@H](C)CO)C(=O)Cc2cc(NC(=O)NC3CCCCC3)ccc2O[C@@H]1CN(C)Cc1ccc(Oc2ccccc2)cc1 | inactive | active | inactive
17 | COc1ccc(NC(=O)N(C)C[C@H]2Oc3ncc(C#C[C@@H](C)O)cc3C(=O)N([C@@H](C)CO)C[C@@H]2C)cc1 | inactive | inactive | inactive
18 | Cn1c(=O)c2cn3ncccc3c2n(C)c1=O | inactive | inactive | inactive
19 | C[C@@H]1CN([C@@H](C)CO)C(=O)Cc2cc(NC(=O)Cc3ccccc3)ccc2O[C@H]1CN(C)S(C)(=O)=O | inactive | inactive | inactive
20 | C[C@@H]1CN([C@@H](C)CO)C(=O)c2cc(NC(=O)Nc3ccc(C(F)(F)F)cc3)ccc2O[C@@H]1CN(C)Cc1ccc(Cl)c(Cl)c1 | active | active | inactive

Row | Compound | cytotoxicity call [1] | cytotoxicity call [2] | growth inhibition call [3]
21 | COc1ccc(C)c2c1CCCC2=O | inactive | inactive | inactive
22 | COc1ccc(CN(C)C[C@@H]2OCCCC[C@H](C)Oc3ccc(NS(=O)(=O)c4ccc(C)cc4)cc3C(=O)N([C@H](C)CO)C[C@H]2C)cc1 | inactive | inactive | inactive
23 | Nc1ncnc2c1ncn2[C@H]1C[C@H](O)[C@@H](CO)O1 | inactive | inactive | inactive
24 | O=C(C[C@H]1CC[C@H](NS(=O)(=O)c2ccc(F)cc2)[C@@H](CO)O1)NCc1ccc(Cl)c(Cl)c1 | inactive | inactive | inactive
25 | COc1ccc(NC(=O)N(C)C[C@@H]2Oc3ccc(NC(=O)CCCN(C)C)cc3C(=O)N([C@@H](C)CO)C[C@@H]2C)cc1 | inactive | inactive | inactive
26 | O=C1NCCc2cncn21 | inactive | inactive | inactive
27 | C[C@@H]1CN([C@H](C)CO)C(=O)Cc2cc(NS(=O)(=O)c3ccc(F)cc3)ccc2O[C@@H]1CN(C)CC1CC1 | inactive | inactive | inactive
28 | Cc1noc(C)c1NC(=O)Nc1ccc2c(c1)C(=O)N([C@@H](C)CO)C[C@@H](C)[C@H](CN(C)C(=O)Nc1ccc(C(F)(F)F)cc1)OCCCC[C@H](C)O2 | inactive | inactive | inactive
29 | CNC[C@H]1OCCCC[C@H](C)Oc2ccc(NC(=O)c3ccncc3)cc2C(=O)N([C@@H](C)CO)C[C@@H]1C | inactive | inactive | inactive
30 | CO[C@H]1CN(C)C(=O)c2ccc(NC(=O)Nc3ccccc3)cc2OC[C@H](C)N(C(=O)CN(C)C)C[C@@H]1C | inactive | inactive | inactive
31 | Cc1noc(C)c1NC(=O)N(C)C[C@@H]1OCCCC[C@@H](C)Oc2ccc(NC(=O)c3ccccc3)cc2C(=O)N([C@H](C)CO)C[C@H]1C | inactive | inactive | inactive
32 | COc1ccc2c3c([nH]c2c1)[C@H](CO)N(CC1CCCCC1)C[C@]13CCN(CC1)C(=O)NC1CCCC1 | active | inactive | inactive
33 | C[C@@H]1CN([C@@H](C)CO)C(=O)Cc2cc(NC(=O)Cn3cnnn3)ccc2O[C@@H]1CN(C)S(=O)(=O)c1ccc(Cl)cc1 | inactive | inactive | inactive
34 | C[C@@H]1CCCCO[C@H](CN(C)C)[C@@H](C)CN([C@H](C)CO)C(=O)c2cc(NC(=O)Nc3cccc4ccccc34)ccc2O1 | inactive | inactive | inactive
35 | C[C@H](CO)N1C[C@H](C)[C@H](CN(C)C(=O)Nc2cccc3ccccc23)Oc2c(NS(=O)(=O)c3ccccc3)cccc2C1=O | inactive | inactive | inactive
36 | COc1ccc(S(=O)(=O)Nc2ccc3c(c2)C(=O)N([C@@H](C)CO)C[C@@H](C)[C@@H](CN(C)S(C)(=O)=O)O3)cc1 | inactive | inactive | inactive
37 | N#CC1CC2CC2N1C(=O)C(N)C12CC3CC(CC(O)(C3)C1)C2 (centres undefined) | inactive | inactive | inactive
38 | O=C(C[C@@H]1CC[C@@H]2[C@H](COC[C@H](O)CN2S(=O)(=O)c2cccc(Cl)c2)O1)N1CCOCC1 | inactive | inactive | inactive
39 | Cc1cc(C(=O)Nc2cccc3c2O[C@@H](CN(C)C(=O)NC(C)C)[C@@H](C)CN([C@@H](C)CO)C3=O)n(C)n1 | inactive | inactive | inactive
40 | C[C@H]1CN([C@@H](C)CO)C(=O)Cc2cc(NC(=O)Cn3cnnn3)ccc2O[C@@H]1CN(C)CC1CC1 | inactive | inactive | inactive

Row | Compound | cytotoxicity call [1] | cytotoxicity call [2] | growth inhibition call [3]
41 | O=C(O)c1ccc2nc(O)c(=O)[nH]c2c1 | inactive | inactive | inactive
42 | C[C@@H](O)C#Cc1cnc2c(c1)C(=O)N([C@@H](C)CO)C[C@H](C)[C@@H](CN(C)C(=O)CN1CCOCC1)O2 | inactive | inactive | inactive
43 | COc1cccc(NC(=O)N(C)C[C@@H]2Oc3ncc(C#Cc4ccncc4)cc3C(=O)N([C@@H](C)CO)C[C@@H]2C)c1 | inactive | inactive | inactive
44 | Cc1ccc(CNc2ccc3c(c2)ncn3C2CCCCC2)cc1 | inactive | inactive | active
45 | Cc1cc(C(=O)Nc2cccc3c2O[C@@H](CN(C)Cc2ccc(C(=O)O)cc2)[C@H](C)CN([C@@H](C)CO)C3=O)n(C)n1 | inactive | inactive | inactive
46 | C[C@@H]1CN([C@@H](C)CO)C(=O)c2cccc(NC(=O)C3CCCCC3)c2O[C@@H]1CN(C)Cc1ccc(C(F)(F)F)cc1 | inactive | inactive | inactive
47 | C[C@H](CO)N1C[C@H](C)[C@H](CN(C)CC2CCOCC2)Oc2ncc(C#Cc3cccc(F)c3)cc2C1=O | inactive | inactive | inactive
48 | CNC(=O)C[C@H]1CC[C@@H]2[C@H](COC[C@H](O)CN2C(=O)c2ccc3c(c2)OCO3)O1 | inactive | inactive | inactive
49 | COCCCNC(=O)[C@]1(Cc2ccccc2N=[N+]=[N-])N=C(c2ccc(OCCCO)cc2)O[C@@H]1c1ccccc1 | inactive | inactive | inactive
50 | CCS(=O)(=O)Nc1ccc2c(c1)C(=O)N(C)C[C@@H](OC)[C@@H](C)CN(C(=O)c1ccc3c(c1)OCO3)[C@H](C)CO2 | inactive | inactive | inactive
51 | C[C@@H]1CCCCO[C@@H](CN(C)Cc2ccc3c(c2)OCO3)[C@H](C)CN([C@H](C)CO)C(=O)c2cc(NC(=O)Nc3ccc(F)cc3)ccc2O1 | inactive | active | inactive
52 | C[C@@H]1CN([C@@H](C)CO)C(=O)c2cc(NS(=O)(=O)c3ccc(Cl)cc3)ccc2O[C@@H](C)CCCCO[C@@H]1CN(C)Cc1ccccc1 | inactive | active | inactive
53 | C[C@@H]1CCCCO[C@H](CN(C)C(=O)Nc2ccc3c(c2)OCO3)[C@H](C)CN([C@@H](C)CO)C(=O)c2cc(NC(=O)Nc3ccc(F)cc3)ccc2O1 | inactive | inactive | inactive
54 | NCc1ccoc1 | inactive | inactive | inactive
55 | Cc1noc(C)c1NC(=O)N(C)C[C@@H]1OCCCC[C@H](C)Oc2ccc(NS(=O)(=O)c3ccccc3)cc2C(=O)N([C@H](C)CO)C[C@@H]1C | inactive | inactive | inactive
56 | NC(=O)c1ccnc(N2CCN(C(=O)C3CCOCC3)C[C@@H](O)C2)c1 | inactive | inactive | inactive
57 | NC(=O)N1CCC[C@@H]1C(=O)O | inactive | inactive | inactive
58 | CCS(=O)(=O)N1C[C@]2(CN(C2)S(=O)(=O)c2cn(cn2)C)c2c(n(c3cc(ccc23)OC)C)[C@@H]1CO | inactive | inactive | inactive
